Results as given in PubChem BioAssay (Tox21).
“And” between values parts separate entries of the source, which are not always exact repeats. Equal entries are not always repeated. Inconclusive results, whose numbers are uncertain, are shown with a selection of clear calls. Potencies beside an inconclusive call are fits to weak or partial responses and may not hold up. The source made the active and inactive calls. Calls follow the shape of the dose curve; as a rule, active = well fitted activation curve with a large enough effect in the signal ratio in the repeat runs (not every such curve was filed as active); inconclusive = weak or mixed curves, or effect the other way; inactive = no such curve, though single readings can be large or run the other way; the % refers to the signal ratio.

test: qHTS assay for small molecule agonists of the antioxidant response element (ARE) signaling pathway (AID 743202); settings: HepG2 ARE-bla reporter, beta-lactamase FRET, 16 h; activation: at 73.3 µM (top of the series) unless noted
Description: U.S. Tox21 Program National Center for Advancing Translational Sciences [NCATS] NIH Chemical Genomics Center [NCGC] U.S. Environmental Protection Agency [EPA] National Institutes of Environmental Health Sciences [NIEHS] National Toxicology Program [NTP] U.S. Food and Drug Administration [FDA] Tox21 Assay Overview: Oxidative stress has been implicated in the pathogenesis of a variety of diseases ranging from cancer to neurodegeneration. The antioxidant response element (ARE) signaling pathway plays an important role in the amelioration of oxidative stress. The CellSensor ARE-bla HepG2 cell line (Invitrogen) can be used for analyzing the Nrf2/antioxidant response signaling pathway. Nrf2 (NF-E2-related factor 2) and Nrf1 are transcription factors that bind to AREs and activate these genes. The CellSensor ARE-bla Hep G2 cell line contains a beta-lactamase reporter gene under control of the Antioxidant Response Element (ARE) stably integrated into HepG2 cells. The activation of the report gene under culture conditions can be detected by fluorescence intensity. This cell line has been used to screen the Tox21 10K compound library to identify agonists that induce oxidative stress.
Tox21 Assay Protocol Summary: The ARE-bla cells were dispensed at 2,000 cells/5 ul/well in 1536-well black wall/clear bottom plates using a Multidrop dispenser. After the assay plates were incubated at a 37 C/5% CO2 incubator for 5 hours, 23 nL of compounds dissolved in DMSO, positive controls or DMSO only was transferred to the assay plate by a pin tool. The plates were incubated at 37 C for 16 hours. After 1 uL of LiveBLAzer B/G FRET substrate was added using a Flying Reagent Dispenser, the plates were incubated at room temperature for 2 hours, and fluorescence intensity was measured by an Envision plate reader.
% is scaled to controls: 0 for no effect and ±100 for the full control effect; potency is read from the fitted curve at half-maximal effect; tags tell the direction and shape of the fitted curve.

Structure (SMILES) | activation | Potency
Nc1nnnn1-c1ccccc1 | inactive: -6.77% | –
O=C(CCCN1CCC(O)(c2cccc(C(F)(F)F)c2)CC1)c1ccc(F)cc1 | – | inconclusive: 26.6 µM [falling, partial curve, poor fit]
CCCC(C(=O)OCCN(CC)CC)(c1ccccc1)c1ccccc1 | inconclusive: 5.44% | –
COC(=O)[C@@H](N)Cc1ccc(O)c(O)c1 | inconclusive: -19.2% | –
CC(C)Nc1ccccc1 | inactive: 4.79% | –
N=c1ccn2c(n1)O[C@H]1[C@H](O)[C@@H](CO)O[C@H]12 | inconclusive: 27.6% | –
BrCc1cccc(Oc2ccccc2)c1 | – | inconclusive: 68.6 µM
O=C(C(=O)c1ccccc1)c1ccccc1 | inconclusive: 1.78% | –
C=C(C)C(=O)OCC(C)O (stereo unspecified) | inconclusive: 19.6% | –
Cc1ccccc1N=Nc1ccc(N=Nc2c(O)ccc3ccccc23)c(C)c1 | – | inconclusive: 18.8 µM [falling, partial curve, poor fit]
CCCCCc1ccc(N)cc1 | inconclusive: -12.8% | –
Cc1nc(-c2ccc(OCC(C)C)c(C#N)c2)sc1C(=O)O | – | inconclusive: 26.6 µM
c1ccc2c(c1)ccc1cc3c(ccc4ccccc43)cc12 | – | active: 538 nM and active: 959 nM
O=[N+]([O-])c1ccc2c(c1)Cc1ccccc1-2 | inconclusive: -4.45% | active: 61.1 µM
O=C(O)C1(C(=O)Nc2ccc(Cl)cc2Cl)CC1 | – | inconclusive: 10.9 µM [rising, partial curve, poor fit]
CCOC(=O)NCCOc1ccc(Oc2ccccc2)cc1 | – | inconclusive: 15.4 µM [rising, partial curve]
COC(=O)CC#N | inactive: -0.178% [at 94.8 µM] | –
CC(=O)NC(Cc1ccccc1)C(=O)O (stereo unspecified) | inconclusive: -14.2% | –
CO[Si](CCCNc1ccccc1)(OC)OC | – | inconclusive: 61.1 µM [falling, single point]

Structure (SMILES) | activation | Potency
c1ccsc1 | inconclusive: -5.68% | –
O=NN(CCCl)C(=O)NCCCl | – | inconclusive: 7.5 µM [rising, full curve]
CCOC(=O)COc1ccc(C)cc1 | – | inconclusive: 68.6 µM
Cc1ccc(NC(=O)c2ccc(CN3CCN(C)CC3)cc2)cc1Nc1nccc(-c2cccnc2)n1 | – | inconclusive: 4.73 µM [rising, full curve, poor fit]
Cc1ccc2c(n1)Oc1ccc(C(C)C(=O)OCC(=O)N(C)C)cc1C2 (stereo unspecified) | – | inactive
CCC(C)n1ncn(-c2ccc(N3CCN(c4ccc(OC[C@H]5CO[C@](Cn6cncn6)(c6ccc(Cl)cc6Cl)O5)cc4)CC3)cc2)c1=O (stereo partly specified) | – | inconclusive: 1.33 µM [rising, full curve, poor fit]
Nc1cc(C(F)(F)F)ccc1S | inactive: 15.5% | –
CCCCCOC(=O)Nc1nc(=O)n([C@@H]2O[C@H](C)[C@@H](O)[C@H]2O)cc1F | inactive: -3.27% | –
Fc1ccc(C(c2ccc(F)cc2)N2CCNCC2)cc1 | – | inconclusive: 33.5 µM
O[C@@H](c1cc(C(F)(F)F)nc2c(C(F)(F)F)cccc12)[C@H]1CCCCN1 | – | inconclusive: 33.5 µM [falling, single point]
Cc1oc(-c2ccccc2)nc1CCOc1cccc2c1ccn2CCC(=O)O | – | inconclusive: 19.3 µM
O=C(CC(=O)C(F)(F)F)c1ccccc1 | inactive: -1.29% [at 94.8 µM] | –
CO[C@@H]1[C@H](OC(=O)/C=C/C=C/C=C/C=C/C(=O)O)CC[C@]2(CO2)[C@H]1[C@@]1(C)O[C@@H]1CC=C(C)C | – | active: 24.3 µM
C[C@@H]1C[C@H]2O[C@@]3(O[C@@H]2C(C)(C)O)[C@H](O)[C@@]2(C)[C@@H]4CC[C@H]5C(C)(C)[C@@H](O[C@@H]6OC[C@@H](O)[C@H](O)[C@H]6O)CC[C@@]56C[C@@]46CC[C@]2(C)[C@@H]13 | inconclusive: 10.7% | –
O=c1[nH]nc(-c2ccc([N+](=O)[O-])o2)o1 | – | inconclusive: 3.86 µM [falling, partial curve, poor fit]
C=CC(C)(CCC=C(C)C)OC(=O)/C=C/c1ccccc1 (stereo unspecified) | – | inconclusive: 27.3 µM [rising, partial curve]
Cc1[nH]cnc1CN1CCc2c(c3ccccc3n2C)C1=O | inactive: -2.57% | –
CC1(C)NC(=O)NC1=O | inconclusive: 33.9% [at 94.8 µM] | –

same assay, conditions: HepG2 ARE-bla reporter, beta-lactamase FRET, 16 h; at 73.3 µM (top of the series)

Structure (SMILES) | activation
C=C(C)C(=O)OCC(C)O (stereo unspecified) | inactive: 0.238%

same assay, conditions: HepG2 ARE-bla reporter, beta-lactamase FRET, 16 h; at 94.8 µM (top of the series)

Structure (SMILES) | activation
C=C(C)C(=O)OCC(C)O (stereo unspecified) | inactive: 14.2%
CC1(C)NC(=O)NC1=O | inactive: 7.21%
